# Assay results taken from the BET-seq Pho4 binding data (Le et al. 2018).
# The other results are listed elsewhere or left out. Values were computed here from the reads of four pooled replicates and scatter widely.
# Molecular target: T1, Pho4 (S. cerevisiae) (UniProt P07270)
# T1 sequence: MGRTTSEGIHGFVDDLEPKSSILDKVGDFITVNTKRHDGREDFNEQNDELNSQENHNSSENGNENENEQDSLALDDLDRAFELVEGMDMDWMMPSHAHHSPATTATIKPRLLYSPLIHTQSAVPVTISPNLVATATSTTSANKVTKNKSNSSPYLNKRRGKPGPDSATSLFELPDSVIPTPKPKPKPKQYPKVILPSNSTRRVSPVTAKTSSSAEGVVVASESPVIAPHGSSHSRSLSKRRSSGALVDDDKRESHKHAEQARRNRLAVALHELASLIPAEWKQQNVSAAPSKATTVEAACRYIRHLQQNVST
# Experiment: relative binding free energy (BET-seq); higher = weaker binding
# Details: reference: library average
row,Sequence,relative binding free energy [kcal/mol]
1,GTTATCACGTGCAAGG,0.11
2,GTGAACACGTGAGCGG,0.23
3,TGGTCCACGTGTTGCG,0.14
4,GAGAGCACGTGGTAGA,-0.11
5,AGAGTCACGTGTGATA,0.1
6,TTTGACACGTGCGGAG,0.02
7,GTGCGCACGTGTCGAG,0.01
8,CTGTTCACGTGCGGGG,0.23
9,GTAAGCACGTGCTGTG,-0.05
10,TATCGCACGTGGCGGG,-0.14
11,GCTGGCACGTGTAAGG,0.03
12,TTCGTCACGTGTTATA,0.16
13,GGAGTCACGTGGTGCC,0.17
14,TGGGGCACGTGGAGCG,-0.07
15,TTTCTCACGTGTGTAA,0.16
16,TCACGCACGTGGTTGG,-0.12
17,GGCGTCACGTGTTGCG,0.04
18,TTATGCACGTGGAAAA,0.11
19,GAAGACACGTGGTTAG,0.01
20,GATTGCACGTGGTACT,0.01
21,TTTTTCACGTGTGTGA,0.24
22,GGATGCACGTGCAGAT,0.24
23,TTTATCACGTGCGATT,0.3
24,TGTTCCACGTGAGGTT,0.31
25,GCATGCACGTGTTAGG,0.03

row,Sequence,relative binding free energy [kcal/mol]
1,GGGGTCACGTGGGGTT,0.09
2,GTTATCACGTGGGGGC,0.03
3,GGATTCACGTGACTTG,0.37
4,GTGTTCACGTGTGCAG,0.05
5,TGTTTCACGTGTTTAA,0.19
6,GGGTACACGTGGGTAA,0.16
7,GGTGTCACGTGTAGTA,0.21
8,GTTGGCACGTGTCTCT,-0.06
9,GAATGCACGTGCGATG,0.29
10,ATGCTCACGTGGGTGT,0.05
11,GAAGTCACGTGTATAT,0.21
12,GGGAGCACGTGTAGAT,0.23
13,CGTTGCACGTGTGTAA,-0.04
14,TTGTCCACGTGAAGTT,0.39
15,AGGCGCACGTGGTTTG,-0.18
16,TTAAACACGTGGTAGA,-0.04
17,TTCCGCACGTGGGTGT,-0.1
18,AGAGTCACGTGGGATA,-0.07
19,GTTGGCACGTGTGTTT,0
20,TGATTCACGTGGGATC,0.27
21,AGATACACGTGGAGTG,-0.06
22,TTTTGCACGTGTGCCT,0.08
23,AGAGGCACGTGCGGCT,-0.17
24,ATCGACACGTGGTGTT,-0.04
25,TGTGGCACGTGTAACG,0.15

row,Sequence,relative binding free energy [kcal/mol]
1,GATCACACGTGGGGGC,0.05
2,TACAACACGTGGTTAT,0.19
3,TGCTTCACGTGTCTTG,0.25
4,GTGGGCACGTGCCGGC,-0.16
5,CGAGTCACGTGTATGG,-0.01
6,TGGGACACGTGCTAGT,0
7,GAGTTCACGTGTGGAG,0.35
8,GTAAGCACGTGAGTAG,0.1
9,ATTTGCACGTGCATGT,-0.28
10,ATATGCACGTGCTTTG,-0.07
11,TATATCACGTGAGGGT,0.4
12,GGGTACACGTGCTGTG,0.09
13,TCGAACACGTGTGGGT,0.01
14,TTATACACGTGTGTGC,0.11
15,GATTGCACGTGTCTGT,0.12
16,AGGGCCACGTGGAGTT,-0.17
17,TTAGCCACGTGGGTAG,-0.19
18,CGTAGCACGTGAAGTG,0.4
19,TGCAGCACGTGGCGGG,-0.24
20,GTTAACACGTGTAAGG,0.14
21,CGGGGCACGTGTTGCG,-0.21
22,ACGGTCACGTGGATTT,0.14
23,GTAATCACGTGTTCTT,0.17
24,GGAATCACGTGGTGTA,0.11
25,AGGGTCACGTGGAGAG,0.16

row,Sequence,relative binding free energy [kcal/mol]
1,ATGGGCACGTGGGTCG,-0.22
2,GAGTGCACGTGCGTTT,-0.05
3,CATTGCACGTGACGTG,0.11
4,TTTAACACGTGAAGCT,0.23
5,GGCGGCACGTGGGGCC,-0.19
6,CGTTTCACGTGTTAGC,0.37
7,GTTTTCACGTGGAGAT,0.32
8,GGTCTCACGTGGATGA,0.12
9,ATGTACACGTGGCGCG,-0.03
10,TTTGTCACGTGGGCTC,-0.06
11,CTTGGCACGTGGGGCG,-0.25
12,AACGTCACGTGGTTTG,0.08
13,TCTTTCACGTGTCTTG,0.33
14,GTATACACGTGGTCGG,-0.14
15,TGAGTCACGTGGTGTC,0
16,GGGATCACGTGAATGG,0.47
17,TTTAGCACGTGAAAGG,0.2
18,TGGAACACGTGTGGCG,0.1
19,CGTAGCACGTGGAGGT,-0.09
20,AGTTACACGTGACGTG,0.26
21,TAGCTCACGTGTTGGT,0.26
22,GAAGTCACGTGGTTCT,0.24
23,CGTTTCACGTGGGGAT,0.06
24,GGGGACACGTGGTTAT,-0.05
25,AGTCGCACGTGTTCGT,0.02

row,Sequence,relative binding free energy [kcal/mol]
1,GTCGGCACGTGATTTG,0.28
2,TATGACACGTGGTACG,-0.01
3,ATCTGCACGTGGGTAG,-0.08
4,TTCAGCACGTGGGGAT,-0.12
5,TGCTCCACGTGTTTGG,-0.02
6,CTAGGCACGTGTTTTT,-0.03
7,GTTAGCACGTGGACGT,-0.05
8,AGATTCACGTGTATAT,0.24
9,AATGGCACGTGTGCTT,-0.19
10,TTGTCCACGTGAGGGG,0.22
11,TTGCGCACGTGTACAG,0
12,TGTCGCACGTGACATG,0.11
13,GTGGACACGTGGTCAG,0.03
14,GTAGGCACGTGTGAAG,0.12
15,TGTTCCACGTGGAGAT,0.1
16,TTCGGCACGTGTGTGT,-0.11
17,AATTTCACGTGTTCTG,0.2
18,CTTCTCACGTGGTGGG,0.11
19,CGAGGCACGTGTGGCT,-0.04
20,ATAGCCACGTGGAGGG,-0.03
21,GTGTTCACGTGTGTGG,0.37
22,GGTGACACGTGGGTAG,-0.06
23,CTTTTCACGTGAATAG,0.46
24,AGTGACACGTGGCTGG,-0.04
25,ATTAGCACGTGGCGTC,-0.04

row,Sequence,relative binding free energy [kcal/mol]
1,TGTTGCACGTGTGACG,0.06
2,CGGGACACGTGTGGCT,0.05
3,TTAGACACGTGTGTAA,0.04
4,TTTAACACGTGATGTA,0.16
5,GGGGGCACGTGTGTTT,-0.12
6,TGTGCCACGTGGAAAG,0.09
7,AAGGGCACGTGTCGAT,0.06
8,GTGGTCACGTGGTTTT,0.21
9,ATTCACACGTGAGGGG,0.2
10,CGTTGCACGTGTTGCT,-0.08
11,CGGTCCACGTGGGGTG,-0.26
12,GGGCCCACGTGGAGGT,-0.13
13,TTACTCACGTGTGCTG,0.16
14,GGGCACACGTGCTGGT,-0.07
15,CTATTCACGTGTTTTG,0.27
16,TACTACACGTGGGAGG,0.06
17,ATTTTCACGTGGGTAG,0.25
18,GTGTCCACGTGTTGAG,-0.02
19,TATAGCACGTGATGGC,0.2
20,GGTGCCACGTGATGGA,0.12
21,GGGTTCACGTGTGCTT,0.31
